Experimental data taken from PubChem BioAssay AID651820 (National Center for Advancing Translational Sciences (NCATS), 2012).
Several values for one entry are separate records, joined by “and”; a condition that tells them apart may be missing. Equal entries are not always repeated. About 12,000 (3.5%) of roughly 340,000 compounds were called active. Inconclusive means that the source gave no clear call. Such entries were picked first, then a sample of the others. Calls follow the shape of the dose curve; as a rule, active = well fitted inhibition curve with a large enough effect; inconclusive = small, poorly fitted or top-dose-only effect, or another doubt; inactive = no such curve, though single readings can be large or run the other way. Potencies of inconclusive entries are left out as doubtful fits. Some structures have more than one record in an assay (separate samples or runs), and their calls can disagree.

experiment: qHTS Assay for Inhibitors of Hepatitis C Virus (HCV); details: Huh7.5.1 HCVcc-Cre (HCVcc is cell-culture hepatitis C virus) infection, luciferase reporter, 44 h; activity change, negative = inhibition: at 41.8 µM (top of the series)
In short: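 A cell-based infection assay in which seeded cells (1,000 per well) receive test compound after 4 h, are inoculated with HCVcc-Cre at approximately 0.5 moi, and are incubated 44 h before luminescence detection.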
% is scaled to controls: 0 for no effect and ±100 for the full control effect; potency is read from the fitted curve at half-maximal effect; tags tell the direction and shape of the fitted curve.

Row | SMILES | Potency | activity change, negative = inhibition
1 | N#Cc1c(NC(=O)CCn2cnc3ccccc3c2=O)oc(-c2ccccc2)c1-c1ccccc1 | inactive and active: 10 µM | –
2 | CCN(CC)c1ccc(NC(=O)CN2CCN(S(=O)(=O)c3cc(Cl)ccc3OC)CC2)cc1 | inconclusive [inhibitor, partial curve] | –
3 | Nc1cc2c(cc1O)CCCC2 | inactive | –
4 | CC(=O)n1nc(-c2ccccc2)nc1NCc1cccs1 | inactive | –
5 | O=C1C(=NO)CCc2ccccc21 | inconclusive [inhibitor, single point] | –
6 | Cc1cc(C)c(S(=O)(=O)n2cc(C(C)C(N)C(=O)O)c3ccccc32)c(C)c1 (configuration not stated) | inactive | –
7 | C/C(=N/NC(=O)c1ccco1)c1ccc(NC(=O)c2ccc(Br)o2)cc1 | inconclusive [inhibitor, single point] | –
8 | CCC(C)(O)c1[nH]c2ccc(C#N)cc2c1C (configuration not stated) | inconclusive [inhibitor, single point] | –
9 | S=C(NCc1ccncc1)Nc1ccc(Cl)c(Cl)c1 | inconclusive [inhibitor, single point] | –
10 | NC(=O)c1ccc(N2CCCC2)nc1 | inactive | –
11 | CCOC(=O)CSc1nnc(-c2cccnc2)n1Cc1ccccc1 | inconclusive [inhibitor, single point] | –
12 | Cc1cccn2c(=O)nc(SCC(=O)Nc3cccc4ccccc34)nc12 | inconclusive [inhibitor, single point] | –
13 | COc1ccc(-n2cccc2/C=C/[N+](=O)[O-])cc1 | inconclusive [inhibitor, single point] | –
14 | COc1ccc(NC(=O)Cc2c(F)cccc2Cl)c(OC)c1 | inconclusive [inhibitor, partial curve] | –
15 | O=C(O)c1cccc(Oc2cccc(Cl)n2)c1 | inactive | –
16 | O=C1N=C(N2CCCCC2)S/C1=C\c1ccncc1 | inactive | –
17 | COC(=O)C1=C(C)N(Cc2ccccc2)C(=NCCc2cccnc2)N[C@H]1c1ccc(Br)cc1 | active: 2.82 µM | –
18 | Cc1oc(-c2ccc3c(c2)OCCO3)cc1C(=O)NC(CCC(=O)O)C(=O)O (configuration not stated) | inactive | –
19 | CCN(CC)S(=O)(=O)c1ccc(C(=O)OCCN2C(=O)c3cccc4c(N5CCOCC5)ccc(c34)C2=O)cc1 | inconclusive [inhibitor, partial curve] | –
20 | CC(C)NC(=O)N(C)C[C@H]1Oc2ccc(NC(=O)NC3CCCCC3)cc2C(=O)N([C@H](C)CO)C[C@@H]1C | inconclusive [inhibitor, single point] | –
21 | COc1ccc(C(=O)OC(C)C(=O)Nc2cc(C(F)(F)F)ccc2Cl)c(OC)c1OC (configuration not stated) | inconclusive [inhibitor, single point] | –
22 | Cc1ccc(CN2CCN(CC(=O)N/N=C/c3ccc(C)o3)CC2)cc1 | inactive | –
23 | COc1ccccc1NC(=O)N1CCN(c2cccc(C(F)(F)F)c2)CC1 | active: 11.2 µM | –
24 | COc1ccc(C(=O)Nc2ccc3c(c2)Cc2ccccc2-3)cc1 | inactive | –

Row | SMILES | Potency | activity change, negative = inhibition
25 | C=CCN=C1SC(C)C(=O)N1S(=O)(=O)c1ccccc1 (configuration not stated) | inconclusive [inhibitor, full curve, poor fit] | –
26 | CCC1(C(N)=O)CC2C=CC1C2 (configuration not stated) | inactive | –
27 | COc1ccc(C(=O)OCC(=O)NC2CC2)cc1OC | inactive | –
28 | COc1cc(/C=N\Nc2nc(-c3cccs3)c(NC(C)=O)s2)ccc1O | inactive | –
29 | CN(Cc1ccccc1)C(=O)Nc1ccc(Cl)cc1 | inconclusive [inhibitor, single point] | –
30 | COc1ccccc1N1CCN(C(=O)c2ccc3nc(-c4ccco4)c(-c4ccco4)nc3c2)CC1 | active: 11.2 µM | –
31 | N#Cc1sc2nc(N3CCCCC3)c3c(c2c1N)CCCC3 | inconclusive [inhibitor, full curve] | –
32 | Cc1cc(NC(=O)CSc2nc(CC(C)(C)C)nc3c2c(=O)n(C)c(=O)n3C)no1 | inactive | –
33 | Cc1ccc(CC(=O)Nc2ccc(S(=O)(=O)N3CCOCC3)cc2)cc1C | inconclusive [inhibitor, single point] | –
34 | CC1CN(S(=O)(=O)c2cccc(C(=O)Nc3ccccc3N3CCOCC3)c2)CC(C)O1 (configuration not stated) | inconclusive [inhibitor, full curve, poor fit] | –
35 | Cc1noc(C)c1C(=O)Nc1nc(-c2ccc([N+](=O)[O-])cc2)cs1 | inconclusive [inhibitor, full curve, poor fit] | –
36 | COc1ccccc1N1CCN(C(=O)C2CCC(CNS(=O)(=O)c3ccc(NC(C)=O)cc3)CC2)CC1 (configuration not stated) | inconclusive [inhibitor, partial curve] | –
37 | CCC(C)(C)NC(=O)C(c1ccncc1)N(Cc1ccc(C)cc1)C(=O)c1csnn1 (configuration not stated) | inconclusive [inhibitor, single point] | –
38 | O=c1[nH]c(SCc2ccccc2)nc2c1cnn2-c1ccc(F)cc1 | inactive | –
39 | COc1cc(CNCCCN2CCOCC2)cc(Br)c1OCc1ccc(Cl)cc1 | active: 1.78 µM | –
40 | COc1ccc(C2c3ccc4ccccc4c3Oc3ncn(CCO)c(=N)c32)cc1 (configuration not stated) | inconclusive [inhibitor, single point] | –
41 | CC1(C)Cc2c(sc(NC(=O)Nc3ccccc3)c2C(N)=O)CO1 | inactive | –
42 | Cc1sc2nc(COC(=O)c3ccc(N4CCCC(C)C4)c([N+](=O)[O-])c3)[nH]c(=O)c2c1C (configuration not stated) | inconclusive [inhibitor, partial curve] | –
43 | COc1cccc(COC(=O)C2CCN(S(=O)(=O)c3ccc(Cl)cc3)CC2)c1OC | inconclusive [inhibitor, single point] | –
44 | Cc1ccc(Sc2ncccc2COC(=O)Nc2ccccc2)cc1 | inconclusive [inhibitor, single point] | –
45 | CCOC(=O)C1C(=O)N(C(=O)c2ccc(OC)cc2)CC1c1ccccc1 (configuration not stated) | inconclusive [inhibitor, single point] | –
46 | COc1cc(S(=O)(=O)Nc2ccc(C)cc2)ccc1N=Cc1c(C)[nH]n(-c2ccc(C)cc2)c1=O | inconclusive [inhibitor, partial curve] | –
47 | CCN(c1ccccc1)c1nc(Cl)nc2c1cnn2C | – | inconclusive: -36.5% [inhibitor]
48 | CC1CCC(NC(=O)Cn2c3c(c(-c4ccccc4Cl)cc2=O)CCC3)CC1 (configuration not stated) | active: 11.2 µM | –

Row | SMILES | Potency | activity change, negative = inhibition
49 | CCOC(=O)C1CCN(C(=O)COc2ccc([N+](=O)[O-])cc2)CC1 | inactive | –
50 | CCOc1ccccc1NC(=O)c1ccccc1NC(=O)c1ccco1 | inactive | –
51 | Cc1c(C(=O)NCC(c2ccco2)N(C)C)oc2c(Cl)cccc12 (configuration not stated) | inconclusive [inhibitor, partial curve, poor fit] | –
52 | O=C(Nc1cccc(/C=C/c2nc3ccccc3c(=O)[nH]2)c1)c1ccccc1Cl | active: 5.01 µM | –
53 | O=C(c1cc(-c2cccc(O)c2)on1)N1CCN(C(c2ccccc2)c2ccccc2)CC1 | inconclusive [inhibitor, single point] | –
54 | CC(=NCCc1c[nH]c2ccccc12)c1c(O)n(Cc2ccccc2)c(=O)[nH]c1=O | inconclusive [inhibitor, single point] | –
55 | O=S(=O)(c1cccc2nsnc12)N1CCCCC1 | inconclusive [inhibitor, single point] | –
56 | COc1ccc(CN2CCC(n3nccc3NC(=O)CCCc3ccccc3)CC2)cc1C | active: 10 µM | –
57 | Cc1ccc(NC(=S)Nc2ccc3nc(-c4ccccn4)c(-c4ccccn4)nc3c2)cc1C | inconclusive [inhibitor, partial curve] | –
58 | CCOC(=O)c1ccc(OCC(=O)c2ccc(O)cc2O)cc1 | inactive | –
59 | COc1cccc(CNC23CC4CC(CC(C4)C2)C3)c1OCc1ccccc1 | inconclusive [inhibitor, single point] | –
60 | CCSc1cc(N2CCCC2)nc(-c2cccc(C)c2)n1 | inconclusive [inhibitor, single point] | –
61 | OCC#Cc1cnc2ccccc2c1 | inactive | –
62 | CCOC(=O)c1c[nH]c2ccc([N+](=O)[O-])cc12 | inconclusive [inhibitor, partial curve, poor fit] | –
63 | O=C(c1ccc2c(c1)OCO2)C1CCCN(Cc2ccc3cccc(F)c3n2)C1 (configuration not stated) | inconclusive [inhibitor, partial curve] | –
64 | O=C(c1c[nH]c(C(=O)N2CCN(c3ccccc3F)CC2)c1)c1cccc(Cl)c1Cl | active: 25.1 µM | –
65 | O=C(NC1CCCN(Cc2ccc(Cl)cc2)C1)c1cccc(N2CCCC2=O)c1 (configuration not stated) | inactive | –
66 | COc1ccccc1-c1cc(C(=O)NCCc2ccccc2)no1 | inconclusive [inhibitor, partial curve, poor fit] | –
67 | N/C(=N\OC(=O)c1ccccc1Cl)c1ccccc1 | inconclusive [inhibitor, single point] | –
68 | COc1ccc(-c2cc(C)no2)cc1S(=O)(=O)Nc1cccc(CN2CCCC2)c1 | inactive | –
69 | CC(Nc1nc(-c2ccc(F)cc2)cs1)c1nc2cc(Cl)c(Cl)cc2n1CCOCCO (configuration not stated) | inactive | –
70 | COc1cccc(C(=O)Oc2c(CN3CCOCC3)cc(Cl)c3cccnc23)c1 | active: 4.47 µM | –
71 | CCCCC(=O)OCC(=O)N1N=C(c2c[nH]c3ccccc23)C(O)C1c1ccc(OC)cc1 (configuration not stated) | inconclusive [inhibitor, single point] | –
72 | Cc1c(C#N)c(N=CN(C)C)c(C(=O)c2ccc(Br)cc2)n1-c1ccccc1 | inconclusive [inhibitor, partial curve] | –
